This is one part of the list.
Assays:
Assay in all cases: glycan array binding signal (z-score within array); higher = stronger binding
Conditions in all cases: glycan notation: IUPAC condensed, linker removed
[1] = molecular target: GlcNAc(b1-2)[GlcNAc(b1-4)]Man(a1-3)[GlcNAc(b1-2)[GlcNAc(b1-6)]Man(a1-6)]Man(b1-4)GlcNAc(b1-4)GlcNAc
Outline: (§1)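 The binding signal is a Z-score computed within each array. Data were drawn from 3228 arrays in the Consortium for Functional Glycomics database, restricted to those with a known protein sequence. Scores were averaged over arrays of the same protein sequence at different concentrations or buffers, and over linkers, and negative values can be taken as non-binding.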

[2] = molecular target: GlcNAc(b1-2)[GlcNAc(b1-4)]Man(a1-3)[GlcNAc(b1-4)][GlcNAc(b1-2)Man(a1-6)]Man(b1-4)GlcNAc(b1-4)GlcNAc
Outline: as §1

[3] = molecular target: GlcNAc(b1-2)[GlcNAc(b1-4)]Man(a1-3)[GlcNAc(b1-4)][GlcNAc(b1-2)[GlcNAc(b1-6)]Man(a1-6)]Man(b1-4)GlcNAc(b1-4)GlcNAc
Outline: as §1

[4] = molecular target: GlcNAc(b1-2)[GlcNAc(b1-4)]Man(a1-3)[GlcNAc(b1-4)][GlcNAc(b1-2)[GlcNAc(b1-6)]Man(a1-6)]Man(b1-4)GlcNAc(b1-4)[Fuc(a1-6)]GlcNAc
Outline: as §1

[5] = molecular target: GlcNAc(b1-2)[GlcNAc(b1-6)]Man(a1-6)[GlcNAc(b1-2)Man(a1-3)]Man(b1-4)GlcNAc(b1-4)GlcNAc
Outline: as §1

[6] = molecular target: GlcNAc(b1-2)[GlcNAc(b1-6)]Man(a1-6)[GlcNAc(b1-2)Man(a1-3)]Man(b1-4)GlcNAc(b1-4)[Fuc(a1-6)]GlcNAc
Outline: as §1

[7] = molecular target: GlcNAc(b1-2)[GlcNAc(b1-6)]Man(a1-6)[GlcNAc(b1-2)Man(a1-3)][GlcNAc(b1-4)]Man(b1-4)GlcNAc(b1-4)GlcNAc
Outline: as §1

[8] = molecular target: GlcNAc(b1-2)[GlcNAc(b1-6)]Man(a1-6)[GlcNAc(b1-4)][GlcNAc(b1-2)Man(a1-3)]Man(b1-4)GlcNAc(b1-4)GlcNAc
Outline: as §1

[9] = molecular target: GlcNAc(b1-3)Fuc
Outline: as §1

[10] = molecular target: GlcNAc(b1-3)Gal
Outline: as §1

[11] = molecular target: GlcNAc(b1-3)Gal(b1-3)GalNAc
Outline: as §1

[12] = molecular target: GlcNAc(b1-3)Gal(b1-4)Glc
Outline: as §1

[13] = molecular target: GlcNAc(b1-3)Gal(b1-4)GlcNAc
Outline: as §1

[14] = molecular target: GlcNAc(b1-3)Gal(b1-4)GlcNAc(b1-2)Man(a1-3)[GlcNAc(b1-3)Gal(b1-4)GlcNAc(b1-2)Man(a1-6)]Man(b1-4)GlcNAc(b1-4)GlcNAc
Outline: as §1

[15] = molecular target: GlcNAc(b1-3)Gal(b1-4)GlcNAc(b1-2)Man(a1-3)[GlcNAc(b1-3)Gal(b1-4)GlcNAc(b1-2)Man(a1-6)]Man(b1-4)GlcNAc(b1-4)[Fuc(a1-6)]GlcNAc
Outline: as §1

[16] = molecular target: GlcNAc(b1-3)Gal(b1-4)GlcNAc(b1-2)[GlcNAc(b1-3)Gal(b1-4)GlcNAc(b1-6)]Man(a1-6)[GlcNAc(b1-3)Gal(b1-4)GlcNAc(b1-2)Man(a1-3)]Man(b1-4)GlcNAc(b1-4)GlcNAc
Outline: as §1

[17] = molecular target: GlcNAc(b1-3)Gal(b1-4)GlcNAc(b1-3)Gal(b1-4)GlcNAc
Outline: as §1

[18] = molecular target: GlcNAc(b1-3)Gal(b1-4)GlcNAc(b1-3)Gal(b1-4)GlcNAc(b1-2)Man(a1-3)[GlcNAc(b1-3)Gal(b1-4)GlcNAc(b1-3)Gal(b1-4)GlcNAc(b1-2)Man(a1-6)]Man(b1-4)GlcNAc(b1-4)GlcNAc
Outline: as §1

[19] = molecular target: GlcNAc(b1-3)Gal(b1-4)GlcNAc(b1-3)Gal(b1-4)GlcNAc(b1-2)Man(a1-3)[GlcNAc(b1-3)Gal(b1-4)GlcNAc(b1-3)Gal(b1-4)GlcNAc(b1-2)Man(a1-6)]Man(b1-4)GlcNAc(b1-4)[Fuc(a1-6)]GlcNAc
Outline: as §1

[20] = molecular target: GlcNAc(b1-3)Gal(b1-4)GlcNAc(b1-3)Gal(b1-4)GlcNAc(b1-2)[GlcNAc(b1-3)Gal(b1-4)GlcNAc(b1-3)Gal(b1-4)GlcNAc(b1-6)]Man(a1-6)[GlcNAc(b1-3)Gal(b1-4)GlcNAc(b1-3)Gal(b1-4)GlcNAc(b1-2)Man(a1-3)]Man(b1-4)GlcNAc(b1-4)[Fuc(a1-6)]GlcNAc
Outline: as §1

[21] = molecular target: GlcNAc(b1-3)Gal(b1-4)GlcNAc(b1-3)Gal(b1-4)GlcNAc(b1-3)Gal(b1-4)GlcNAc(b1-2)Man(a1-3)[GlcNAc(b1-3)Gal(b1-4)GlcNAc(b1-3)Gal(b1-4)GlcNAc(b1-3)Gal(b1-4)GlcNAc(b1-2)Man(a1-6)]Man(b1-4)GlcNAc(b1-4)GlcNAc
Outline: as §1

[22] = molecular target: GlcNAc(b1-3)Gal(b1-4)GlcNAc(b1-3)Gal(b1-4)GlcNAc(b1-3)Gal(b1-4)GlcNAc(b1-2)Man(a1-3)[GlcNAc(b1-3)Gal(b1-4)GlcNAc(b1-3)Gal(b1-4)GlcNAc(b1-3)Gal(b1-4)GlcNAc(b1-2)Man(a1-6)]Man(b1-4)GlcNAc(b1-4)[Fuc(a1-6)]GlcNAc
Outline: as §1

[23] = molecular target: GlcNAc(b1-3)Gal(b1-4)GlcNAc(b1-3)Gal(b1-4)GlcNAc(b1-3)Gal(b1-4)GlcNAc(b1-2)[GlcNAc(b1-3)Gal(b1-4)GlcNAc(b1-3)Gal(b1-4)GlcNAc(b1-3)Gal(b1-4)GlcNAc(b1-6)]Man(a1-6)[GlcNAc(b1-3)Gal(b1-4)GlcNAc(b1-3)Gal(b1-4)GlcNAc(b1-3)Gal(b1-4)GlcNAc(b1-2)Man(a1-3)]Man(b1-4)GlcNAc(b1-4)[Fuc(a1-6)]GlcNAc
Outline: as §1

[24] = molecular target: GlcNAc(b1-3)Gal(b1-4)GlcNAc(b1-3)Gal(b1-4)GlcNAc(b1-3)Gal(b1-4)GlcNAc(b1-3)Gal(b1-4)GlcNAc(b1-2)Man(a1-3)[GlcNAc(b1-3)Gal(b1-4)GlcNAc(b1-3)Gal(b1-4)GlcNAc(b1-3)Gal(b1-4)GlcNAc(b1-3)Gal(b1-4)GlcNAc(b1-2)Man(a1-6)]Man(b1-4)GlcNAc(b1-4)GlcNAc
Outline: as §1

[25] = molecular target: GlcNAc(b1-3)Gal(b1-4)GlcNAc(b1-3)Gal(b1-4)GlcNAc(b1-3)Gal(b1-4)GlcNAc(b1-3)Gal(b1-4)GlcNAc(b1-2)Man(a1-3)[GlcNAc(b1-3)Gal(b1-4)GlcNAc(b1-3)Gal(b1-4)GlcNAc(b1-3)Gal(b1-4)GlcNAc(b1-3)Gal(b1-4)GlcNAc(b1-2)Man(a1-6)]Man(b1-4)GlcNAc(b1-4)[Fuc(a1-6)]GlcNAc
Outline: as §1

[26] = molecular target: GlcNAc(b1-3)Gal(b1-4)GlcNAc(b1-3)Gal(b1-4)GlcNAc(b1-3)Gal(b1-4)GlcNAc(b1-3)Gal(b1-4)GlcNAc(b1-2)[GlcNAc(b1-3)Gal(b1-4)GlcNAc(b1-3)Gal(b1-4)GlcNAc(b1-3)Gal(b1-4)GlcNAc(b1-3)Gal(b1-4)GlcNAc(b1-6)]Man(a1-6)[GlcNAc(b1-3)Gal(b1-4)GlcNAc(b1-3)Gal(b1-4)GlcNAc(b1-3)Gal(b1-4)GlcNAc(b1-3)Gal(b1-4)GlcNAc(b1-2)Man(a1-3)]Man(b1-4)GlcNAc(b1-4)[Fuc(a1-6)]GlcNAc
Outline: as §1

[27] = molecular target: GlcNAc(b1-3)Gal(b1-4)GlcNAc(b1-3)Gal(b1-4)GlcNAc(b1-3)GalNAc
Outline: as §1

[28] = molecular target: GlcNAc(b1-3)Gal(b1-4)GlcNAc(b1-3)GalNAc
Outline: as §1

[29] = molecular target: GlcNAc(b1-3)Gal(b1-4)GlcNAc(b1-3)[GlcNAc(b1-3)Gal(b1-4)GlcNAc(b1-3)]GalNAc
Outline: as §1

[30] = molecular target: GlcNAc(b1-3)Gal(b1-4)GlcNAc(b1-6)[Gal(b1-3)]GalNAc
Outline: as §1

[31] = molecular target: GlcNAc(b1-3)Gal(b1-4)GlcNAc(b1-6)[GlcNAc(b1-3)Gal(b1-3)]GalNAc
Outline: as §1

[32] = molecular target: GlcNAc(b1-3)Gal(b1-4)GlcNAc(b1-6)[GlcNAc(b1-3)]Gal(b1-4)GlcNAc
Outline: as §1

[33] = molecular target: GlcNAc(b1-3)GalNAc
Outline: as §1

[34] = molecular target: GlcNAc(b1-3)Man
Outline: as §1

[35] = molecular target: GlcNAc(b1-3)[GlcNAc(b1-4)][GlcNAc(b1-6)]GlcNAc
Outline: as §1

[36] = molecular target: GlcNAc(b1-3)[GlcNAc(b1-6)]Gal
Outline: as §1

[37] = molecular target: GlcNAc(b1-3)[GlcNAc(b1-6)]Gal(b1-4)GlcNAc
Outline: as §1

B1: PNA (Arachis hypogaea), P02872 (protein)
chain: MKPFCVFLTFFLLLAASSKKVDSAETVSFNFNSFSEGNPAINFQGDVTVLSNGNIQLTNLNKVNSVGRVLYAMPVRIWSSATGNVASFLTSFSFEMKDIKDYDPADGIIFFIAPEDTQIPAGSIGGGTLGVSDTKGAGHFVGVEFDTYSNSEYNDPPTDHVGIDVNSVDSVKTVPWNSVSGAVVKVTVIYDSSTKTLSVAVTNDNGDITTIAQVVDLKAKLPERVKFGFSASGSLGGRQIHLIRSWSFTSTLITTTRRSIDNNEKKIMNMASA
In the case of B1, the “glycan array binding signal (z-score)” value [1] is reported as 1.9, the “glycan array binding signal (z-score)” value [2] is reported as -0.195 and the “glycan array binding signal (z-score)” value [3] is reported as -0.288. For the same binder, the “glycan array binding signal (z-score)” value [4] was -0.309, the “glycan array binding signal (z-score)” value [5] was -0.171 and the “glycan array binding signal (z-score)” value [6] was -0.234. The “glycan array binding signal (z-score)” value [7] was -0.103, the “glycan array binding signal (z-score)” value [8] was -0.151 and the “glycan array binding signal (z-score)” value [9] was -0.218. For the same binder, the “glycan array binding signal (z-score)” value [10] was -0.192, the “glycan array binding signal (z-score)” value [11] was -0.203 and the “glycan array binding signal (z-score)” value [12] was -0.081. For the same binder, the “glycan array binding signal (z-score)” value [13] was -0.145, the “glycan array binding signal (z-score)” value [14] was 0.227 and the “glycan array binding signal (z-score)” value [15] was 0.22. For the same binder, the “glycan array binding signal (z-score)” value [16] was 0.663, the “glycan array binding signal (z-score)” value [17] was -0.096 and the “glycan array binding signal (z-score)” value [18] was 0.821. The “glycan array binding signal (z-score)” value [19] was 0.509, the “glycan array binding signal (z-score)” value [20] was 1.3 and the “glycan array binding signal (z-score)” value [21] was 0.851. The “glycan array binding signal (z-score)” value [22] was 0.774, the “glycan array binding signal (z-score)” value [23] was 1.79 and the “glycan array binding signal (z-score)” value [24] was 0.957. For the same binder, the “glycan array binding signal (z-score)” value [25] was 0.999, the “glycan array binding signal (z-score)” value [26] was 1.96 and the “glycan array binding signal (z-score)” value [27] was -0.187. The “glycan array binding signal (z-score)” value [28] was -0.322, the “glycan array binding signal (z-score)” value [29] was -0.006 and the “glycan array binding signal (z-score)” value [30] was 5.04. The “glycan array binding signal (z-score)” value [31] was -0.239, the “glycan array binding signal (z-score)” value [32] was 0.932 and the “glycan array binding signal (z-score)” value [33] was -0.154. The “glycan array binding signal (z-score)” value [34] was -0.153, the “glycan array binding signal (z-score)” value [35] was -0.225 and the “glycan array binding signal (z-score)” value [36] was -0.195. The “glycan array binding signal (z-score)” value [37] was 0.285.
